# In PubChem BioAssay AID743279 (National Center for Advancing Translational Sciences (NCATS), 2014):
# Among all 360,000 compounds or so, about 17,000 (4.7%) were called active. Inconclusive results, whose numbers are uncertain, are shown with a selection of clear calls. Rule as the data show it: active = activity change below about -50%; inconclusive = mostly about -30% to -49%; inactive = weaker than that.
# Test: qHTS for Inhibitors of Inflammasome Signaling: IL-1-beta AlphaLISA Primary Screen
# Conditions: THP-1 LPS/ATP IL-1B secretion, 16 h; at 57.5 µM, stronger effect = lower value
# In short: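 Secreted IL-1B measured by AlphaLISA bead assay after 16 h compound exposure of THP-1 cells; compounds (final up to 57.5 uM) added 1 h before LPS (250 ng/mL) and ATP (1.25 mM) stimulation; lower signal means less secretion.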
# % is scaled to controls: 0 for no effect and ±100 for the full control effect.
row,SMILES,activity change
1,COc1ccc(C(=O)Nc2ccc(N3CCN(c4ccc(OC)cc4)CC3)c(C#N)c2)cc1,inactive: 8.7%
2,O=C(NCCOc1ccccc1-c1ccccc1)c1ccco1,inconclusive: -36%
3,Cc1ccc(-n2ncc3c(NNC(=O)c4ccco4)ncnc32)cc1C,inconclusive: -40%
4,O=C1CC(c2ccccc2)=NN1c1ccccc1,active: -82.4%
5,CSC(=Nc1ccccc1)N=C(SCc1ccccc1)N(C)C,active: -104%
6,COC(=O)C1(Cc2cc(-c3cccnc3)no2)CCN(C(=O)OC(C)(C)C)CC1,inactive: 9.65%
7,O=C1CC(c2ccccc2)Oc2cc(O)ccc21 (stereo unspecified),inactive: -27.5%
8,O=c1cc(N2CCC3(CC2)OCCO3)[nH]c(=O)n1-c1ccc(Br)cc1,inactive: 7.73%
9,CCC(C)NC(=O)c1ccc(Cl)c(S(=O)(=O)Nc2ccccc2N2CCOCC2)c1 (stereo unspecified),inconclusive: -39%
10,COc1ccc([C@H]2CC(=O)C=C(c3ccc4ncccc4c3)C2)cc1,inactive: 9.39%
11,CCOc1cc(-c2nc(-c3ccc(C)nc3OC)no2)cc(OCC)c1OCC,inactive: 0%
12,N#CC1=C(N)NC(SCc2ccccc2)=C(C#N)C12CCCCC2,inconclusive: -38.7%
13,CCOc1ccccc1CNC(=O)c1cc2oc3ccccc3c2n1CC,inconclusive: -44.2%
14,COC(=O)c1cc(NC(=S)Nc2cc(Cl)cc(Cl)c2)cc(C(=O)OC)c1,active: -81.4%
15,COc1ccc(/C(N)=N/OC(=O)CSc2ccccc2)cc1OC,inconclusive: -45.2%
16,CCn1c(C)c(C)c2cc(C(=O)NC3CCCCCC3)ccc21,inactive: -9.13%
17,C/C(Cl)=C\Cn1c(O)c(N=O)c2ccccc21,active: -98.3%
18,CN(CCO)S(=O)(=O)c1ccc2c(c1)C(=NNC(N)=O)c1cc(S(=O)(=O)N(C)CCO)ccc1-2,inactive: 0%
19,N#CC(C#N)=Cc1cc2ccccc2nc1N1CCCCC1,active: -104%

row,SMILES,activity change
1,CN(C)CCOC(=O)c1ccc2[nH]c3c(c2c1)CSCC3,active: -73.7%
2,CC1CCc2sc3nc(N4CCN(CCO)CC4)n4ncnc4c3c2C1 (stereo unspecified),inconclusive: -44.4%
3,CN(C)CCNC(=O)c1ccc(CS(=O)(=O)c2c(Cl)cccc2Cl)o1,inactive: 11.2%
4,COc1cccc(C2CC(c3ccccc3Cl)Nc3ncnn32)c1 (stereo unspecified),inconclusive: -32.1%
5,COc1ccc(S(=O)(=O)n2ccc(C(C)Oc3ccc(-c4ccccc4)c(F)c3)n2)cc1 (stereo unspecified),inconclusive: -33%
6,COc1ccc(NC2c3ccccc3C(=O)N2c2ccccn2)cc1Cl (stereo unspecified),inconclusive: -31.5%
7,O=C(Nc1ccc(Cl)c(S(=O)(=O)N2CCOCC2)c1)c1ccc2c(c1)OCO2,inconclusive: -46.7%
8,CC(=O)Nc1cccc(C(=O)/C=C/c2ccc(N(C)C)cc2)c1,inconclusive: -33.2%
9,O=C(NC1CCN(Cc2ccccc2)CC1)c1cccc(NS(=O)(=O)c2ccc(Br)cc2)c1,inconclusive: -41.6%
10,CC1CCCCC1NC(=O)CSc1ccsc1[N+](=O)[O-] (stereo unspecified),inconclusive: -45.8%
11,CCn1c(SCC(=O)Nc2nc(-c3ccccc3)cs2)nnc1-c1ccccc1,active: -62.7%
12,O=[N+]([O-])c1ccc(C=NN2CCCCCC2)cc1,inconclusive: -30.3%
13,COc1ccc(/C=N/Nc2nc(Nc3ccccc3)nc(N3CCCC3)n2)cc1[N+](=O)[O-],active: -88.3%
14,CN1CCc2c(sc(N)c2C(N)=O)C1,inactive: 10.6%
15,COc1cc(/C=C2\SC(N)=NC2=O)ccc1OCC(=O)Nc1ccc(C)cc1,active: -103%
16,COc1cc(/C=N\NC(=O)CC#N)ccc1OC/C=C/c1ccccc1,inactive: -26.6%
17,O=C1CC2c3ccccc3CCN2C(=O)CN1Cc1ccccc1 (stereo unspecified),inactive: 8.18%
18,Cc1ccc(S(=O)(=O)N(C)CC(=O)N(C)CCOc2ccccc2)cc1,inactive: -6.04%
19,Cc1ccc(C(=O)COC(=O)c2cccc(NC(=O)c3ccc([N+](=O)[O-])cc3[N+](=O)[O-])c2)cc1,inconclusive: -33.2%

row,SMILES,activity change
1,CC(NC(=O)C12CC3CC(CC(O)(C3)C1)C2)c1ccccc1 (stereo unspecified),inactive: 9.71%
2,Cc1nc2c(ccc3nc(NC(=O)c4ccc5c(c4)OCCO5)sc32)s1,inconclusive: -34.8%
3,COc1ccc(-c2nnc(SCC(=O)NNC(=O)Cc3ccccc3)n2C)cc1OC,inactive: -17.9%
4,CC(=O)Oc1ccc(C2C3=C(CC(C)(C)CC3=O)Nc3cc4c(cc32)OCCO4)cc1 (stereo unspecified),inconclusive: -41.8%
5,CCN(CC)C(=N)/C(C#N)=N/Nc1ccc(C)cc1,active: -54.1%
6,CC(C)n1ncc2c(C(=O)Nc3ccccc3SCC(N)=O)cc(C3CC3)nc21,inconclusive: -41.7%
7,O=C(NC1CCCC1)C(c1ccccc1)n1c(CSCCOc2ccccc2)nc2ccccc21 (stereo unspecified),inactive: 23.8%
8,Cc1cc(C)c(C)c(S(=O)(=O)N2CCC(C(=O)NCC(c3ccccc3)N(C)C)CC2)c1C (stereo unspecified),inconclusive: -43.8%
9,Cc1oc2c(c1C(=O)NCc1cccnc1)C(=O)c1ccccc1C2=O,active: -80.6%
10,COc1ccc(C[C@H]2CN3C(=NC[C@@H]3Cc3ccc(O)cc3)N2C[C@H](C)NC(=O)c2ccc(C)c(Br)c2)cc1,inconclusive: -49.4%
11,Fc1ccc(Oc2nnnn2-c2ccccc2)cc1,active: -58.3%
12,Cc1cc(C)c(S(=O)(=O)N2CCN(C(=O)c3c(C)nn(-c4ccccc4)c3Cl)CC2)c(C)c1,inconclusive: -48.2%
13,CCOC(=O)C1CCN(C(=O)c2cc3c(C)cc(C)cc3[nH]2)CC1,inactive: 11.9%
14,COc1ccc(-c2cc(NC(C)=O)c3ncc(-c4cccc(C(C)=O)c4)n3c2)cc1OC,inconclusive: -45.4%
15,COc1ccc(N2CCN(C(=O)C(=O)c3cn(CC(=O)N4CCCC4)c4ccccc34)CC2)cc1,inactive: 26.3%
16,Cc1nn(-c2ccccc2)c2sc(C(=O)N(CC(=O)NC3CCCC3)Cc3ccco3)cc12,inconclusive: -47.3%
17,CCOC(=O)N1CCN(C(=O)c2cc3c(=O)n(C)c4ccccc4c3n2C)CC1,inactive: -11.5%
18,CCCCc1ccc(NC(=O)CN(C)CC(=O)Nc2ccccc2Cl)cc1,active: -74.4%
